# Measurements from PubChem BioAssay AID485294 (National Center for Advancing Translational Sciences (NCATS), 2010).
# In all, about 370,000 compounds went through this assay and about 150 (0.041%) were called active. This list was built around the results that the source calls inconclusive (neither active nor inactive); the mix of calls is not that of the screen. The call rests on the fitted dose curve; in most records, active means well fitted inhibition curve with a large enough effect; inconclusive means small, poorly fitted or top-dose-only effect; inactive means flat fitted curve, though single readings scatter. No potency is given beside an inconclusive call; the fits are too rough.
# Molecular target: Beta-lactamase (Escherichia coli (strain K12)) (UniProt P00811)
# Sequence of UniProt P00811 (P00811 whole entry, looked up): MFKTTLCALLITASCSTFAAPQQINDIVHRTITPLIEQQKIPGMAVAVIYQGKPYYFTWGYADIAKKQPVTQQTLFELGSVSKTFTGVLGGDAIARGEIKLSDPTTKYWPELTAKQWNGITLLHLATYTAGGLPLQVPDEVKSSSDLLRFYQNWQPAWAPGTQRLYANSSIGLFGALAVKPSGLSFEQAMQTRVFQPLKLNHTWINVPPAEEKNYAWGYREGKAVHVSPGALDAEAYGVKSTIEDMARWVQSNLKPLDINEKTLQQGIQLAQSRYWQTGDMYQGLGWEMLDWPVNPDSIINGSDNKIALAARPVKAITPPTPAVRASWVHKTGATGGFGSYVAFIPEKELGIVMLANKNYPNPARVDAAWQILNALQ
# Test: qHTS Inhibitors of AmpC Beta-Lactamase (assay with detergent); further: nearly all actives have a fitted effect of over 25% in size
# Settings: AmpC hydrolysis of nitrocefin, absorbance 480 nm, 0.01% Triton; series mostly up to 114 µM
# In short: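 20 mM phosphate pH 7.0 + 0.01% (detergent screen) or 0.0001% Triton X-100; 5.3 nM AmpC reagent; cpd preinc 15 min RT; nitrocefin (800 uM stock) to start; A480 q20 s × 4 min; Activity was normalised to no-enzyme and no-compound control wells.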
# Potency means the concentration at half of the fitted maximal effect; tags describe the fitted curve by direction and shape.
row,SMILES,Potency
1,Cc1cc(C)n(CCCO)c(=O)c1C#N,"inconclusive [inhibitor, partial curve]"
2,COc1cc(OC)c(N(C)C(=O)c2nn(C)c3c2CSc2ccccc2-3)cc1Cl,inactive
3,O=C(NCCc1ccccn1)c1cc(-c2ccc(Cl)c(Cl)c2Cl)nc2ccccc12,inactive
4,CCCc1nnc2n1N=C(c1ccc(-c3cc(Cl)ccc3Cl)o1)CS2,inactive
5,Cc1ccc(N2CCN(C(=O)CCc3c(C)nc4c(c3C)c(=O)n(C)c(=O)n4C)CC2)c(C)c1,"inconclusive [inhibitor, single point]"
6,O=C(CCCOC(=O)c1ccc(O)cc1O)c1ccc(F)cc1,"inconclusive [inhibitor, full curve, poor fit]"
7,O=C1NN(c2ccccc2)C(=O)/C1=C\c1coc2ccc(O)cc2c1=O,"inconclusive [inhibitor, partial curve]"
8,Cc1ccc(CNC(=O)c2csc3c2CCCCC3)cc1,inactive
9,COc1cc([N+](=O)[O-])cc(/C=N/NC(=O)C(C)Nc2cccc(C)c2)c1O (stereo unspecified),inactive
10,Cc1ccc(-c2nnc(-c3ccc(Br)cc3)o2)o1,"inconclusive [inhibitor, full curve, poor fit]"
11,Cc1ccc(-c2csc(N)n2)s1,"inconclusive [inhibitor, full curve, poor fit]"
12,Cc1nc(N)c(C#N)c(-c2ccccc2)c1C,"inconclusive [inhibitor, full curve, poor fit]"
13,CC(=O)c1sc(NC(=O)c2ccc(C)c(C)c2)nc1C,"inconclusive [inhibitor, full curve]"
14,COc1ccc(CCNC(=O)C(C(=O)c2ccc(F)cc2)n2ccccc2=O)cc1OC (stereo unspecified),"inconclusive [inhibitor, partial curve, poor fit]"
15,S=C(NCc1ccc(Cl)cc1)NCc1ccco1,"inconclusive [inhibitor, single point]"
16,N#Cc1ccc[n+](CC(=O)c2ccc(NC(=O)c3ccccc3)cc2)c1,inactive
17,COc1ccc(OCC(O)CNC2CCCC2)cc1 (stereo unspecified),"inconclusive [inhibitor, full curve, poor fit]"
18,O=C(N=C1SC2CS(=O)(=O)CC2N1c1ccccc1)c1cccc([N+](=O)[O-])c1 (stereo unspecified),"inconclusive [inhibitor, full curve, poor fit]"
19,Cn1nnnc1SCCCNCc1ccccc1OCc1ccccc1F,inactive
20,O=C(CCN1CCN(c2ccccc2)CC1)Nc1ccc(Cl)cc1,"inconclusive [inhibitor, full curve]"
21,Cc1ccc(-n2cc(-c3ccccc3)c3c(N4CCOCC4)ncnc32)cc1,inactive
22,CC1CN(CCC(=O)Nc2ccc3c(c2)OCO3)CC(C)O1 (stereo unspecified),"inconclusive [inhibitor, single point]"
23,CCn1c(SCC(=O)c2ccc3c(c2)OCCO3)nnc1-c1ccco1,"inconclusive [inhibitor, full curve, poor fit]"
24,Cc1ccc(C(C(=O)NCC2CCCO2)N(C(=O)c2snc(C(N)=O)c2N)c2ccc(C)c(C)c2)o1 (stereo unspecified),"inconclusive [inhibitor, full curve, poor fit]"

row,SMILES,Potency
1,COc1ccc(NC(=O)/C(Cl)=C(/Cl)S(=O)Cc2ccccc2)cn1 (stereo unspecified),inactive
2,O=c1cc(O)c2ccccc2n1Cc1ccccc1F,inactive
3,Cc1ccc(NC(=O)CCNS(=O)(=O)c2ccc3c(c2)CCC(=O)N3)cc1F,inactive
4,COc1cc(C(=S)N2CCCC2)ccc1OC(=O)c1ccc(Cl)cc1[N+](=O)[O-],"inconclusive [inhibitor, full curve]"
5,O=C1CC(N2CCCc3ccccc32)C(=O)N1c1ccccc1 (stereo unspecified),"inconclusive [inhibitor, partial curve, poor fit]"
6,CC(=NCc1ccco1)c1c(O)n(C)c(=O)n(C)c1=O,inactive
7,CC1CN(C(=O)/C=C/c2ccccc2Cl)CC(C)O1 (stereo unspecified),inactive
8,CC[N+](CC)(CC)C/C(N)=N/O,"inconclusive [inhibitor, single point]"
9,COc1ccccc1N1C(=N)S/C(=C\c2ccc(-c3ccccc3C(=O)O)o2)C1=O,"inconclusive [inhibitor, partial curve]"
10,COc1ccc(OC)c(NC(=O)c2ccccc2N(C)S(=O)(=O)c2ccc(C)cc2)c1,"inconclusive [inhibitor, partial curve]"
11,CCCCC(=O)N/N=C/c1sccc1C,inactive
12,O=C(Nc1ccc(COc2ccccc2)cc1)c1cccc([N+](=O)[O-])c1,"inconclusive [inhibitor, full curve, poor fit]"
13,C=CCn1c(C)nc2c(sc3nc4c(cc32)COC(C)(C)C4)c1=O,inactive
14,COC(=O)CNC(=O)C1CC(=O)N(CCc2ccc(F)cc2)C1 (stereo unspecified),inactive
15,CC(C)N1CCC(N2CCN(Cc3cnc(-c4ccccc4)s3)CC2CCO)CC1 (stereo unspecified),inactive
16,COc1ccc(Cl)cc1C(=O)Nc1ccncc1,"inconclusive [inhibitor, single point]"
17,CCc1ccc(NC(=O)c2ccc3c(c2)c(C)c(C)n3Cc2ccccc2)cc1,inactive
18,O=C(N/N=C/c1cccnc1)C1CCCN(S(=O)(=O)c2ccccc2)C1 (stereo unspecified),"inconclusive [inhibitor, single point]"
19,Cc1c(C(=O)Nc2ccc(Cl)cc2)c2ccccn2c1C(=O)c1ccccc1,"inconclusive [inhibitor, single point]"
20,COc1cccc(NC(=O)c2ccc[n+](C)c2)c1,"inconclusive [inhibitor, single point]"
21,COc1cc(OC)c2ccc(=O)oc2c1C(CC(=O)N1CCN(c2ccccc2)CC1)c1ccc2c(c1)OCO2 (stereo unspecified),inactive
22,CN(CC(=O)N1CCc2ccccc2C1)S(=O)(=O)c1ccc2c(c1)c(=O)n(C)c(=O)n2C,"inconclusive [inhibitor, full curve, poor fit]"
23,Oc1ccc(Nc2nc(-c3ccc(Cl)cc3)nc3ccccc23)cc1,inactive
24,COc1ccc(S(=O)(=O)N2CCC3(CC2)OCCO3)cc1,"inconclusive [inhibitor, full curve, poor fit]"

row,SMILES,Potency
1,Cc1ccc(C2NC(=O)c3c(sc(C)c3C)N2)c(O)c1 (stereo unspecified),"inconclusive [inhibitor, full curve, poor fit]"
2,c1ccc(CCn2c3ccccc3c3nnc(SCc4ccc5nonc5c4)nc32)cc1,"inconclusive [inhibitor, full curve, poor fit]"
3,COc1ccc(NC(=O)CCCN2C(=O)CCC2=O)cc1Cl,"inconclusive [inhibitor, full curve, poor fit]"
4,O=C(CNC(=O)c1ccc2ccccc2c1)NCc1ccccc1F,inactive
5,Cn1cc(/C=C(\NC(=O)c2ccccc2Cl)C(=O)NCCCN2CCOCC2)c2ccccc21,inactive
6,Cc1ccc(C(C)NC(=O)CSc2ccc(S(=O)(=O)N3CCOCC3)cn2)cc1C (stereo unspecified),"inconclusive [inhibitor, full curve, poor fit]"
7,O=C(Nc1ccc(F)cc1)c1ccc2nc[nH]c2c1,"inconclusive [inhibitor, full curve, poor fit]"
8,CC(C)n1c(SCC(=O)N2c3ccccc3Sc3ccccc32)nc2c1c(=O)n(C)c(=O)n2C,inactive
9,Cc1ccc(C(=O)c2sc3nsc(C)c3c2N)cc1,inactive
10,COc1ccc(C(=S)NC2CCCCC2)cc1,inactive
11,Cc1ccc(OCc2ccc(C(=O)Nc3nccs3)o2)cc1,"inconclusive [inhibitor, partial curve, poor fit]"
12,CCCOC(=O)c1[nH]c2c(c1C)C(=O)CC(c1ccc(OC)c(OC)c1)C2 (stereo unspecified),"inconclusive [inhibitor, full curve, poor fit]"
13,CCCCCC(=O)Nc1cc(S(=O)(=O)N2CCCCC2)ccc1N1CCOCC1,inactive
14,Cc1cc(OCC(=O)N2C[C@H]3C[C@@H](C2)c2cccc(=O)n2C3)c2c(C)c(C)c(=O)oc2c1,"inconclusive [inhibitor, partial curve, poor fit]"
15,COCCNC(=O)CN(C(=O)CCC(=O)Nc1ccccn1)c1ccc(C)cc1C,"inconclusive [inhibitor, full curve, poor fit]"
16,COc1ccc(CCNC(=O)Cn2cccc2C(=O)c2ccccc2)cc1OC,"inconclusive [inhibitor, full curve, poor fit]"
17,C=CCC1(CC=C)CCCN1C(=O)c1cc(COc2ccc(F)c(F)c2)on1,inactive
18,CCOC(=O)c1ccc(NC(=O)c2cc3c(n(-c4ccc(C)cc4)c2=O)CC(C)(C)CC3=O)cc1,inactive
19,O=C(N/N=C/c1ccc(Cl)c([N+](=O)[O-])c1)c1cc(-c2ccc3c4c(cccc24)CC3)n[nH]1,"inconclusive [inhibitor, full curve, poor fit]"
20,CC1SCC(=O)N(CC(=O)Nc2ccc3c(c2)OCCO3)C1=O (stereo unspecified),"inconclusive [inhibitor, single point]"
21,COc1cccc(CC(=O)OCC(=O)NNC(=O)c2ccc(Br)cc2)c1,inactive
22,Cc1ccc(OCCn2c(SCCO)nc3c(N)ncnc32)cc1,"inconclusive [inhibitor, full curve, poor fit]"
23,CCOC(=O)c1ccc(N2C(=O)C3ON(c4ccccc4)C(c4ccco4)C3C2=O)cc1 (stereo unspecified),"inconclusive [inhibitor, full curve, poor fit]"
